# Measured values taken from the supplement of paper PMC8728848.
# This is one part of the list.
# How the values were obtained:
# Experiment in all cases: glycan array binding signal (z-score within array); higher = stronger binding
# Details in all cases: glycan notation: IUPAC condensed, linker removed
# [1] = target: Fuc(a1-2)[Gal(a1-3)]Gal(b1-3)GlcNAc(b1-6)GalNAc
# Outline: (§1)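 From the Consortium for Functional Glycomics database, 3228 arrays were curated, keeping only those whose protein sequence was available. Binding is given as a within-array Z-score averaged across arrays sharing a protein sequence and across linkers. Negative Z-scores can be read as non-binding.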
# [2] = target: Fuc(a1-2)[Gal(a1-3)]Gal(b1-4)Glc
# Outline: as §1
# [3] = target: Fuc(a1-2)[Gal(a1-3)]Gal(b1-4)GlcNAc
# Outline: as §1
# [4] = target: Fuc(a1-2)[Gal(a1-3)]Gal(b1-4)GlcNAc(b1-2)Man
# Outline: as §1
# [5] = target: Fuc(a1-2)[Gal(a1-3)]Gal(b1-4)GlcNAc(b1-2)Man(a1-3)[Fuc(a1-2)[Gal(a1-3)]Gal(b1-4)GlcNAc(b1-2)Man(a1-6)]Man(b1-4)GlcNAc(b1-4)GlcNAc
# Outline: as §1
# [6] = target: Fuc(a1-2)[Gal(a1-3)]Gal(b1-4)GlcNAc(b1-2)Man(a1-3)[Fuc(a1-2)[Gal(a1-3)]Gal(b1-4)GlcNAc(b1-2)Man(a1-6)]Man(b1-4)GlcNAc(b1-4)[Fuc(a1-6)]GlcNAc
# Outline: as §1
# [7] = target: Fuc(a1-2)[Gal(a1-3)]Gal(b1-4)GlcNAc(b1-3)GalNAc
# Outline: as §1
# [8] = target: Fuc(a1-2)[Gal(a1-3)]Gal(b1-4)GlcNAc(b1-6)GalNAc
# Outline: as §1
# [9] = target: Fuc(a1-2)[Gal(a1-3)]Gal(b1-4)[Fuc(a1-3)]Glc
# Outline: as §1
# [10] = target: Fuc(a1-2)[Gal(a1-3)]Gal(b1-4)[Fuc(a1-3)]GlcNAc
# Outline: as §1
# [11] = target: Fuc(a1-2)[Gal(a1-3)]Gal(b1-4)[Fuc(a1-3)]GlcNAc(b1-3)GalNAc
# Outline: as §1
# [12] = target: Fuc(a1-2)[Gal(a1-4)]Gal(b1-4)GlcNAc
# Outline: as §1
# [13] = target: Fuc(a1-2)[GalNAc(a1-3)]Gal
# Outline: as §1
# [14] = target: Fuc(a1-2)[GalNAc(a1-3)]Gal(b1-3)GalNAc(a1-3)[Fuc(a1-2)]Gal(b1-4)GlcNAc
# Outline: as §1
# [15] = target: Fuc(a1-2)[GalNAc(a1-3)]Gal(b1-3)GalNAc(b1-3)Gal(a1-4)Gal(b1-4)Glc
# Outline: as §1
# [16] = target: Fuc(a1-2)[GalNAc(a1-3)]Gal(b1-3)GlcNAc
# Outline: as §1
# [17] = target: Fuc(a1-2)[GalNAc(a1-3)]Gal(b1-3)GlcNAc(b1-2)Man(a1-3)[Fuc(a1-2)[GalNAc(a1-3)]Gal(b1-3)GlcNAc(b1-2)Man(a1-6)]Man(b1-4)GlcNAc(b1-4)GlcNAc
# Outline: as §1
# [18] = target: Fuc(a1-2)[GalNAc(a1-3)]Gal(b1-3)GlcNAc(b1-2)Man(a1-3)[Fuc(a1-2)[GalNAc(a1-3)]Gal(b1-3)GlcNAc(b1-2)Man(a1-6)]Man(b1-4)GlcNAc(b1-4)[Fuc(a1-6)]GlcNAc
# Outline: as §1
# [19] = target: Fuc(a1-2)[GalNAc(a1-3)]Gal(b1-3)GlcNAc(b1-3)GalNAc
# Outline: as §1
# [20] = target: Fuc(a1-2)[GalNAc(a1-3)]Gal(b1-3)GlcNAc(b1-6)GalNAc
# Outline: as §1
# [21] = target: Fuc(a1-2)[GalNAc(a1-3)]Gal(b1-4)Glc
# Outline: as §1
# [22] = target: Fuc(a1-2)[GalNAc(a1-3)]Gal(b1-4)GlcNAc
# Outline: as §1
# [23] = target: Fuc(a1-2)[GalNAc(a1-3)]Gal(b1-4)GlcNAc(b1-2)Man
# Outline: as §1
# [24] = target: Fuc(a1-2)[GalNAc(a1-3)]Gal(b1-4)GlcNAc(b1-2)Man(a1-3)[Fuc(a1-2)[GalNAc(a1-3)]Gal(b1-4)GlcNAc(b1-2)Man(a1-6)]Man(b1-4)GlcNAc(b1-4)GlcNAc
# Outline: as §1
# [25] = target: Fuc(a1-2)[GalNAc(a1-3)]Gal(b1-4)GlcNAc(b1-2)Man(a1-3)[Fuc(a1-2)[GalNAc(a1-3)]Gal(b1-4)GlcNAc(b1-2)Man(a1-6)]Man(b1-4)GlcNAc(b1-4)[Fuc(a1-6)]GlcNAc
# Outline: as §1
# [26] = target: Fuc(a1-2)[GalNAc(a1-3)]Gal(b1-4)GlcNAc(b1-3)Gal(b1-4)GlcNAc
# Outline: as §1
# [27] = target: Fuc(a1-2)[GalNAc(a1-3)]Gal(b1-4)GlcNAc(b1-3)Gal(b1-4)GlcNAc(b1-3)Gal(b1-4)GlcNAc
# Outline: as §1
# [28] = target: Fuc(a1-2)[GalNAc(a1-3)]Gal(b1-4)GlcNAc(b1-3)GalNAc
# Outline: as §1
# [29] = target: Fuc(a1-2)[GalNAc(a1-3)]Gal(b1-4)GlcNAc(b1-3)[Fuc(a1-2)[GalNAc(a1-3)]Gal(b1-4)GlcNAc(b1-6)]GalNAc
# Outline: as §1
# [30] = target: Fuc(a1-2)[GalNAc(a1-3)]Gal(b1-4)GlcNAc(b1-6)GalNAc
# Outline: as §1
# [31] = target: Fuc(a1-2)[GalNAc(a1-3)]Gal(b1-4)[Fuc(a1-3)]GlcNAc
# Outline: as §1
# [32] = target: Fuc(a1-2)[GalNAc(a1-3)]Gal(b1-4)[Fuc(a1-3)]GlcNAc(b1-3)GalNAc
# Outline: as §1
# [33] = target: Fuc(a1-2)[GalNAc(a1-4)]Gal(b1-4)GlcNAc
# Outline: as §1
# [34] = target: Fuc(a1-2)[GalNAc(b1-3)]Gal
# Outline: as §1
# [35] = target: Fuc(a1-3)GlcNAc
# Outline: as §1
# [36] = target: Fuc(a1-3)[Gal(b1-4)]Glc6S
# Outline: as §1
# [37] = target: Fuc(a1-3)[Gal(b1-4)]GlcNAc
# Outline: as §1
# [38] = target: Fuc(a1-3)[Gal(b1-4)]GlcNAc(b1-2)Man
# Outline: as §1
# [39] = target: Fuc(a1-3)[Gal(b1-4)]GlcNAc(b1-2)Man(a1-3)[Fuc(a1-3)[Gal(b1-4)]GlcNAc(b1-2)Man(a1-6)]Man(b1-4)GlcNAc(b1-4)GlcNAc
# Outline: as §1
# [40] = target: Fuc(a1-3)[Gal(b1-4)]GlcNAc(b1-2)Man(a1-3)[Fuc(a1-3)[Gal(b1-4)]GlcNAc(b1-2)Man(a1-6)]Man(b1-4)GlcNAc(b1-4)[Fuc(a1-6)]GlcNAc
# Outline: as §1
# [41] = target: Fuc(a1-3)[Gal(b1-4)]GlcNAc(b1-3)Gal(b1-3)[Fuc(a1-4)]GlcNAc
# Outline: as §1
# [42] = target: Fuc(a1-3)[Gal(b1-4)]GlcNAc(b1-3)Gal(b1-4)[Fuc(a1-3)]GlcNAc
# Outline: as §1
# [43] = target: Fuc(a1-3)[Gal(b1-4)]GlcNAc(b1-3)Gal(b1-4)[Fuc(a1-3)]GlcNAc(b1-3)Gal(b1-4)[Fuc(a1-3)]GlcNAc
# Outline: as §1
# [44] = target: Fuc(a1-3)[Gal(b1-4)]GlcNAc(b1-3)GalNAc
# Outline: as §1
# [45] = target: Fuc(a1-3)[Gal(b1-4)]GlcNAc(b1-4)Gal(b1-4)[Fuc(a1-3)]GlcNAc
# Outline: as §1
binder,measurement,setting,value
"PA-IL (Pseudomonas aeruginosa), Q05097 (protein) MAWKGEVLANNEAGQVTSIIYNPGDVITIVAAGWASYGPTQKWGPQGDREHPDQGLICHDAFCGALVMKIGNSGTIPVNTGLFRWVAPNNVQGAITLIYNDVPGTYGNNSGSFSVNIGKDQS",glycan array binding signal (z-score),[1],-0.223
same,glycan array binding signal (z-score),[2],-0.027
same,glycan array binding signal (z-score),[3],1.18
same,glycan array binding signal (z-score),[4],-0.101
same,glycan array binding signal (z-score),[5],1.29
same,glycan array binding signal (z-score),[6],0.017
same,glycan array binding signal (z-score),[7],0.009
same,glycan array binding signal (z-score),[8],-0.221
same,glycan array binding signal (z-score),[9],-0.19
same,glycan array binding signal (z-score),[10],0.612
same,glycan array binding signal (z-score),[11],-0.214
same,glycan array binding signal (z-score),[12],5.44
same,glycan array binding signal (z-score),[13],-0.214
same,glycan array binding signal (z-score),[14],-0.234
same,glycan array binding signal (z-score),[15],-0.237
same,glycan array binding signal (z-score),[16],-0.216
same,glycan array binding signal (z-score),[17],-0.221
same,glycan array binding signal (z-score),[18],-0.229
same,glycan array binding signal (z-score),[19],-0.222
same,glycan array binding signal (z-score),[20],-0.244
same,glycan array binding signal (z-score),[21],-0.224
same,glycan array binding signal (z-score),[22],-0.206
same,glycan array binding signal (z-score),[23],-0.22
same,glycan array binding signal (z-score),[24],-0.197
same,glycan array binding signal (z-score),[25],-0.221
same,glycan array binding signal (z-score),[26],-0.202
same,glycan array binding signal (z-score),[27],-0.173
same,glycan array binding signal (z-score),[28],-0.223
same,glycan array binding signal (z-score),[29],-0.214
same,glycan array binding signal (z-score),[30],-0.203
same,glycan array binding signal (z-score),[31],-0.197
same,glycan array binding signal (z-score),[32],-0.207
same,glycan array binding signal (z-score),[33],-0.013
same,glycan array binding signal (z-score),[34],-0.22
same,glycan array binding signal (z-score),[35],-0.228
same,glycan array binding signal (z-score),[36],-0.207
same,glycan array binding signal (z-score),[37],-0.224
same,glycan array binding signal (z-score),[38],-0.233
same,glycan array binding signal (z-score),[39],-0.21
same,glycan array binding signal (z-score),[40],-0.215
same,glycan array binding signal (z-score),[41],-0.201
same,glycan array binding signal (z-score),[42],-0.19
same,glycan array binding signal (z-score),[43],-0.216
same,glycan array binding signal (z-score),[44],-0.201
same,glycan array binding signal (z-score),[45],-0.215
